Consider 12 molecules from patent US20180305463A1 (NAVIGO PROTEINS, published 2018).

A word on the Kd: it is the concentration at which binding is half-saturated. Lower therefore signals higher affinity.

Positions count from the first letter of the chain named.

The labels stand for the following.
B1: IgG binding protein SEQ ID NO: 14 (shuffle sequence IB14) (designed binder)
chain: PAAKHDKDQQSAFYEILHLPNLTEDQRSAFIQSLKDDPSVSKEILGEAKKLNDAQAPPASPAPSAPSACWSHPQFEK
B2: IB14 dimer (SEQ ID NO: 45) (designed binder)
chain: MPAAKHDKDQQSAFYEILHLPNLTEDQRSAFIQSLKDDPSVSKEILGEAKKLNDAQAPPSAAPAPSAPASAAPAPAPAPAPSPAAPAASPAAKHDKDQQSAFYEILHLPNLTEDQRSAFIQSLKDDPSVSKEILGEAKKLNDAQAPPASPSPAAPAPAPSAASPAPAAPAPAASPAAAACAWSHPQFEK
notes: also called CID 150570
B3: IgG binding protein SEQ ID NO: 26 (shuffle sequence IB25) (designed binder)
chain: B1 chain with P1N, S28N
notes: also called CID 154254
B4: IgG binding protein SEQ ID NO: 24 (shuffle sequence IB24) (designed binder)
chain: B1 chain with P1N, K4Q, D8E, S11N, S28N, P58K
notes: also called CID 154253
B5: IgG binding protein SEQ ID NO: 13 (shuffle sequence IB13) (designed binder)
chain: B1 chain with K4Q
B6: IgG binding protein SEQ ID NO: 27 (shuffle sequence IB26) (designed binder)
chain: B1 chain with P1N, K4Q, D25E, S28N, G46A, P58K
notes: also called CID 154255
B7: IgG binding protein SEQ ID NO: 30 (shuffle sequence IB28) (designed binder)
chain: VDAQHDEDQQSAFYEILHLPNLTEEQRNAFIQSLKDDPSQSAEILAEAKKLNESQAPKASPAPSAPSACWSHPQFEK
notes: also called CID 154257
B8: IgG binding protein SEQ ID NO: 28 (shuffle sequence IB27) (designed binder)
chain: NAAKFDEAQQSAFYEILHLPNLTEEQRNAFIQSLKDDPSVSKEVLGEAQKLNDSQAPKASPAPSAPSACWSHPQFEK
notes: also called CID 154256
B9: IB14 tetramer (SEQ ID NO: 46) (designed binder)
chain: MPAAKHDKDQQSAFYEILHLPNLTEDQRSAFIQSLKDDPSVSKEILGEAKKLNDAQAPPSAAPAPSAPASAAPAPAPAPAPSPAAPAASPAAKHDKDQQSAFYEILHLPNLTEDQRSAFIQSLKDDPSVSKEILGEAKKLNDAQAPPASPSPAAPAPAPSAASPAPAAPAPAASPAAPAAKHDKDQQSAFYEILHLPNLTEDQRSAFIQSLKDDPSVSKEILGEAKKLNDAQAPPSAAPAPSAPASAAPAPAPAPAPSPAAPAASPAAKHDKDQQSAFYEILHLPNLTEDQRSAFIQSLKDDPSVSKEILGEAKKLNDAQAPPASPSPAAPAPAPSAASPAPAAPAPAASPAAAACAWSHPQFEK
notes: also called CID 150663
B10: IB14 hexamer (SEQ ID NO: 47) (designed binder)
chain: MPAAKHDKDQQSAFYEILHLPNLTEDQRSAFIQSLKDDPSVSKEILGEAKKLNDAQAPPSAAPAPSAPASAAPAPAPAPAPSPAAPAASPAAKHDKDQQSAFYEILHLPNLTEDQRSAFIQSLKDDPSVSKEILGEAKKLNDAQAPPASPSPAAPAPAPSAASPAPAAPAPAASPAAPAAKHDKDQQSAFYEILHLPNLTEDQRSAFIQSLKDDPSVSKEILGEAKKLNDAQAPPSAAPAPSAPASAAPAPAPAPAPSPAAPAASPAAKHDKDQQSAFYEILHLPNLTEDQRSAFIQSLKDDPSVSKEILGEAKKLNDAQAPPASPSPAAPAPAPSAASPAPAAPAPAASPAAPAAKHDKDQQSAFYEILHLPNLTEDQRSAFIQSLKDDPSVSKEILGEAKKLNDAQAPPSAAPAPSAPASAAPAPAPAPAPSPAAPAASPAAKHDKDQQSAFYEILHLPNLTEDQRSAFIQSLKDDPSVSKEILGEAKKLNDAQAPPASPSPAAPAPAPSAASPAPAAPAPAASPAAAACAWSHPQFEK
notes: also called CID 150772
B11: IgG binding protein SEQ ID NO: 20 (shuffle sequence IB20) (designed binder)
chain: ADSKFDEAQQSAFYEILHLPSLTEDQRAAFIQSLKDDPSTSKSLLGEAKKLNDAQAPPASPAPSAPSACWSHPQFEK
B12: IgG binding protein SEQ ID NO: 11 (shuffle sequence IB11) (designed binder)
chain: B1 chain with P1N, K4Q, D6S, D8E, S11N

The target of the first assay is Cetuximab. Nature of the assay: ELISA; antibody coated on plate, binder detected via Strep-tag with Strep-Tactin-HRP. (ELISA stands for enzyme-linked immunosorbent assay.)
Regarding B1, the affinity, expressed as Kd, was 4.9 nM.

For the next assay, the target named is T1, hIgG1-Fc (human, UniProt P01857-1 99-330 = IgG part).
T1 construct: domain: Fc
The experiment in a line: SPR (Biacore 3000, CM5 chip, Langmuir 1:1 model). On the technique in general: Surface plasmon resonance follows binding to a sensor surface in real time, without labels.
Take B2: binding was characterised by a dissociation constant (Kd) of 0.38 nM. Molecule B3 displayed a dissociation constant (Kd) of 4.6 nM. Regarding B1, the equilibrium dissociation constant (Kd) is 1.3 nM.

Take B4: binding was characterised by a dissociation constant (Kd) of 1.4 nM. Molecule B5 registered a Kd of 1.2 nM.

B6 gave an equilibrium dissociation constant (Kd) of 5.3 nM.

B7: binding was characterised by a dissociation constant (Kd) of 7.6 nM. Still for that read-out and setting: in the case of B8 it was 3 nM. On the same count and under the same terms, then B9, with 0.09 nM; and B10, with 0.16 nM.

The target of the next assay is T1, hIgG1-Fc. Nature of the assay: SPR (Biacore), 0-50 nM binder.
As to B8, the Kd is 3.1 nM.

In a further assay the target is Natalizumab. The experiment in a line: ELISA; IgG4 antibody coated on plate, binder detected via Strep-tag with Strep-Tactin-HRP.
B11 gave a dissociation constant (Kd) of 5.4 nM. Same read-out and setting: in the case of B12 it was 7.1 nM.
